Laboratory results as given in the antibiotic and cytotoxicity screens of Wong et al. (2023).
The list shows a part of the results.

What follows are molecules tested on HepG2 (assay: cytotoxicity call (relative viability < 0.9)). Conditions: 10 µM.
`C[C@@H]1CCCCO[C@H](CN(C)C(=O)NC2CCCCC2)[C@@H](C)CN([C@H](C)CO)C(=O)c2cc(NC(=O)c3ccncc3)ccc2O1` was tested, and the cytotoxicity call was “inactive”. `CCN1[C@@H]2c3ccc(-c4cccnc4)c(=O)n3C[C@@H]2[C@@H](CO)[C@@H]1C(=O)NCCc1cn(C)cn1` was tested, and the cytotoxicity call was “inactive”. `OCCNC(=S)c1ccccc1` was tested, and the cytotoxicity call was “inactive”. In the case of `C[C@H]1CN([C@@H](C)CO)C(=O)Cc2cc(NS(=O)(=O)c3ccc(F)cc3)ccc2O[C@H]1CN(C)Cc1ccc(-c2ccccc2)cc1`, the cytotoxicity call is reported as “inactive”. `CCC1OC(=O)C(C)C(=O)C(C)C(OC2OC(C)CC(N(C)C)C2O)C(C)(OC)CC(C)C(=O)C(C)C2N(CCCCn3cnc(-c4cccnc4)c3)C(=O)OC12C` (centres undefined) was tested, and the cytotoxicity call was “inactive”. With `CC(C)=CCOc1cc(C)cc2oc(=O)cc(-c3ccccc3)c12` the cytotoxicity call was “inactive”. For `CC(C)NC(=O)Nc1ccc2c(c1)CC(=O)N([C@@H](C)CO)C[C@H](C)[C@@H](CN(C)S(=O)(=O)c1cn(C)cn1)O2`, the cytotoxicity call was “inactive”. With `C[C@@H]1CCCCO[C@H](CN(C)C(=O)CCCN(C)C)[C@@H](C)CN([C@H](C)CO)C(=O)c2cc(NC(=O)Nc3ccc(F)cc3)ccc2O1` the cytotoxicity call was “inactive”. For `CC(C)(O)CCC(O)C(C)(O)C1CCC2(O)C3=CC(=O)C4CC(O)C(O)CC4(C)C3CCC12C` (centres undefined), the cytotoxicity call was “inactive”.
